Results taken from doi:10.1101/2023.01.23.525122 (bioRxiv, 2023).
Like-named read-outs stand apart in the source and are kept apart here.

Tests used:
[1] = target: the molecule itself; assay: SDS-resistant oligomer detection by SDS-PAGE
[2] = target: the molecule itself; assay: SDS-resistant oligomer detection by SDS-PAGE; remark: listed apart in the source

Protein | binding result [1] | binding result [2]
NPM[…]D (natural protein) not shown | binds | –
NPM1-S4D (natural protein) not shown | binds | –
NPM[…]F (natural protein) not shown | – | binds
